Laboratory results published in PubChem BioAssay AID624417 (National Center for Advancing Translational Sciences (NCATS), 2012).
About 6,400 (1.6%) of roughly 410,000 compounds were called active. Inconclusive means that the source gave no clear call. Such entries were picked first, then a sample of the others. Calls come from the whole dose curve; as a rule, active = well fitted inhibition curve with a large enough effect; inconclusive = small, poorly fitted or top-dose-only effect; inactive = no such curve, though single readings can be large or run the other way. Potencies of inconclusive entries are left out as doubtful fits.

The compounds below were run against Glucagon-like peptide 1 receptor (Homo sapiens) (UniProt P43220) (assay: qHTS of GLP-1 Receptor Inverse Agonists (Inhibition Mode)). Settings: HEK293 GLP-1R CRE-luciferase, luminescence, 24 h, GLP-1R form is constitutively active; activity change, negative = inhibition: at 38.3 µM (top of the series) unless noted.
Sequence of UniProt P43220 (P43220 whole entry, looked up): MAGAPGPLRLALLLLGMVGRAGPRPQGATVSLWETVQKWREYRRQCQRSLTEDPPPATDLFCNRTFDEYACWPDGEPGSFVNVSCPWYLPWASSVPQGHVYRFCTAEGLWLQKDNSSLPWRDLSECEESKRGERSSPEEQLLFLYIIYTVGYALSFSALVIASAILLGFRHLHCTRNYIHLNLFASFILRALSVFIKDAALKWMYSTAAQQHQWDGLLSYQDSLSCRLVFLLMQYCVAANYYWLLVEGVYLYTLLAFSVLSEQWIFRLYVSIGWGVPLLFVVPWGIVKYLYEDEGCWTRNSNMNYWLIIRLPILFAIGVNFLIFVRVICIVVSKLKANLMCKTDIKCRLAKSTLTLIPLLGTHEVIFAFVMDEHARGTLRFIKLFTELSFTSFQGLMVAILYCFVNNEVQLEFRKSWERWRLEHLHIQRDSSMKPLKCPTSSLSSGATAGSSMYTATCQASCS
Summary of the method: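 Stable HEK293 clone (constitutively active GLP-1R + cAMP-response luciferase); 200 cells/uL plated, 12 h pre-culture, compound 24 hr, 37 deg C/5% CO2; detection reagent 12 min RT; luminescence.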
% is set by controls: 0 for no effect and ±100 for the full control effect; potency is the fitted concentration of half-maximal effect; tags give direction and shape of the fitted curve.
Note: nearly all actives have a fitted effect of over 55% in size.

Compound | Potency | activity change, negative = inhibition
COc1ccccc1-c1nc(=S)c(C(C)=O)c(C)[nH]1 | inconclusive [inhibitor, partial curve] | –
COc1ccc(/C=C/C(=O)c2cc(F)ccc2OC(=O)c2ccccc2C)cc1OC | inconclusive [inhibitor, full curve, poor fit] | –
CN(Cc1ccccc1)C(=O)c1ccc(NC(=O)Cc2cccc([N+](=O)[O-])c2)cc1 | inconclusive [inhibitor, single point] | –
CC(=O)N1c2ccc(S(=O)(=O)N3CCC(C(=O)NCCc4ccc(Cl)cc4)CC3)cc2CC1C (configuration not stated) | inconclusive [inhibitor, single point] | –
CN1CCC(N(C)S(=O)(=O)c2ccc(NC(=O)c3ccc(S(=O)(=O)N(C)C)cc3)cc2)CC1 | – | inactive: -24.8%
Cc1cc(Nc2cccc(Br)c2)c2ccccc2n1 | inconclusive [inhibitor, single point] | –
O=C(COc1ccc([N+](=O)[O-])cc1)NNC(=O)Nc1cccc(F)c1 | inconclusive [inhibitor, full curve, poor fit] | –
Cc1ccc(Nc2nnc(C3C(=O)N(C)C4(C)CC3c3cc(Br)ccc3O4)s2)cc1 (configuration not stated) | inconclusive [inhibitor, partial curve, poor fit] | –
Cc1c(C(=O)NC(C)c2ccccc2)c(-c2ccccc2)nn1-c1ccccc1 (configuration not stated) | inconclusive [inhibitor, full curve, poor fit] | –
O=C1N(Cc2ccccc2)CCCC12CCCN(Cc1ccccc1)C2=O | inconclusive [inhibitor, single point] | –
Cc1ccccc1C(=O)NC(=S)Nc1ccc(Oc2ccc(Cl)cc2)cc1 | inconclusive [inhibitor, partial curve, poor fit] | –
COc1cccc(CN(C(=O)c2ccc(C(C)(C)C)cc2)C2CCS(=O)(=O)C2)c1 (configuration not stated) | – | inactive: -3.35%
CCc1ccc(OC(=O)Nc2ccccc2)cc1 | – | inactive: 8.52%
Oc1ccc(O)c(C=NNC(=S)NC2CC3CC2C2C=CCC32)c1 (configuration not stated) | inconclusive [inhibitor, partial curve, poor fit] | –
O=C(NC1CCCN(c2ccc(C(F)(F)F)cn2)C1)c1ccnc(Cl)c1 (configuration not stated) | inconclusive [inhibitor, partial curve, poor fit] | –
Nc1n[nH]c(N)c1N=Nc1ccc2c(c1)OCO2 | – | inactive: -8.93%
O=C(/C=C/c1ccccc1O)c1ccco1 | inconclusive [inhibitor, partial curve, poor fit] | –
Cc1ccc(/C=N/NC(=O)c2c(C)nc3ccc(Br)cn23)cc1 | inconclusive [inhibitor, full curve, poor fit] | –
OC(COCc1ccc2c(c1)OCO2)CN1CCN(Cc2ccccc2)CC1 (configuration not stated) | inconclusive [inhibitor, partial curve, poor fit] | –
O=C(Nc1ccc2c(c1)CCC2)c1ccccc1Br | inconclusive [inhibitor, single point] | –
O=C(CSc1nnc(NC2CC2)s1)c1ccc[nH]1 | inconclusive [inhibitor, single point] | –

Compound | Potency | activity change, negative = inhibition
COc1ccc(CNC(=O)c2sc(=O)n(Cc3ccc(-c4ccccc4)cc3)c2C)cc1OC | inconclusive [inhibitor, partial curve, poor fit] | –
Cc1ccc(S(=O)(=O)CCC(=O)Nc2ccccc2Br)cc1 | – | inactive: -1.15%
C[C@@H]1CN([C@H](C)CO)S(=O)(=O)c2ccc(C#Cc3ccccc3F)cc2O[C@@H]1CN(C)C(=O)Cc1ccccc1 | inconclusive [inhibitor, single point] | –
Cc1ccc(S(=O)(=O)N(CC(=O)N=Nc2c(O)[nH]c3ccccc23)c2cccc(C)c2)cc1 | inconclusive [inhibitor, partial curve, poor fit] | –
C/C(=N\NC(=O)c1cc(O)cc(O)c1)c1ccc(NC(=O)Cc2ccccc2)cc1 | – | inactive: -12.4%
CCn1c(CNc2ccc(F)cc2)nnc1SCC(=O)N1CCCc2ccccc21 | inconclusive [inhibitor, partial curve, poor fit] | –
COc1ccc(C(=O)C2CCN(C(=O)Nc3ccccc3C)CC2)cc1 | inconclusive [inhibitor, partial curve, poor fit] | –
CCN(CC)C(=S)SCC(=O)c1ccc(Br)cc1 | inconclusive [inhibitor, partial curve, poor fit] | –
CCOC(=O)C1(Cc2ccccc2C)CCCN(C(=O)CCc2cccnc2)C1 (configuration not stated) | – | inactive: -0.13%
Cc1ccc(/C=N/NC(=S)NC(C)C)o1 | inconclusive [inhibitor, partial curve, poor fit] | –
O=C1c2ccccc2S(=O)(=O)N1CC1CC(c2ccccc2Cl)=NO1 (configuration not stated) | – | inactive: 26.4%
CSCCC(C(=O)Nc1c(C)cccc1C)n1c(-c2ccc(C(F)(F)F)cc2)nc2ccccc21 (configuration not stated) | inconclusive [inhibitor, single point] | –
S=C(c1ccccc1)N1CCCc2ccccc21 | inconclusive [inhibitor, single point] | –
CN(CCCCCCN(C)Cc1ccccc1O)Cc1ccccc1O | inconclusive [inhibitor, partial curve, poor fit] | –
O=C(NCC1COc2ccccc2O1)c1ccc(Br)s1 (configuration not stated) | inconclusive [inhibitor, single point] | –
COc1cc2c(cc1OC)C(C)N(C(=O)Nc1cc(C)cc(C)c1)CC2 (configuration not stated) | inconclusive [inhibitor, full curve] | –
NC(=S)N=Nc1c(O)n(CCCl)c2ccc(Br)cc12 | inconclusive [inhibitor, full curve, poor fit] | –
C[C@H](CO)N1C[C@H](C)[C@H](CN(C)Cc2ccc(Oc3ccccc3)cc2)Oc2ccc(NC(=O)Nc3cccc4ccccc34)cc2CC1=O | inconclusive [inhibitor, partial curve] | –
Cc1ccc([N+](=O)[O-])cc1-c1ccc2cccc(C)c2n1 | inconclusive [inhibitor, partial curve, poor fit] | –
CCOCc1c(C(=O)NCC(c2ccco2)N2CCCC2)oc2ccccc12 (configuration not stated) | inconclusive [inhibitor, single point] | –
Cc1ccccc1NC(=S)NCc1ccc(F)cc1 | inconclusive [inhibitor, single point] | –

Compound | Potency | activity change, negative = inhibition
CCCCCCCCNc1ccccc1S(=O)(=O)NCc1ccccc1 | inconclusive [inhibitor, single point] | –
COc1cccc(NC(=O)c2cc(C(=O)Nc3cccc(OC)c3)n(C)n2)c1 | inconclusive [inhibitor, partial curve, poor fit] | –
O=C(Nc1ccc(F)c(Cl)c1)C1CCN(C(=O)c2ccc(F)cc2)CC1 | inconclusive [inhibitor, single point] | –
N#Cc1ccccc1Cn1c(=O)n(CCCC(=O)NCc2ccccc2Cl)c(=O)c2ccccc21 | – | inactive: 0.509%
CCOc1cc(-c2cc(-c3ccc(N)cc3)nc(N)c2C#N)ccc1O | – | inconclusive: -30.6% [inhibitor]
CSCCC(NC(=O)c1ccc([N+](=O)[O-])cc1Cl)C(=O)OCC(=O)C12CC3CC(CC(C3)C1)C2 (configuration not stated) | inconclusive [inhibitor, single point] | –
Cc1ccsc1-c1nc(CN2C[C@@H](C)O[C@@H](C)C2)c(C)o1 | inconclusive [inhibitor, partial curve, poor fit] | –
O=C(CCSc1ccc(Cl)cc1)c1ccco1 | inconclusive [inhibitor, single point] | –
O=C(NCc1ccccc1Cl)C1CCN(S(=O)(=O)Cc2ccccc2)CC1 | – | inactive: 4.74%
CCOC(=O)c1ccc(NC(=O)c2cnn(-c3ccc(C)cc3C)c2C2CCN(C(=O)OC(C)(C)C)CC2)cc1 | inconclusive [inhibitor, partial curve, poor fit] | –
Cc1nc2ccn(Cc3ccco3)c(=O)c2cc1C(=O)NCc1ccccc1F | inconclusive [inhibitor, full curve, poor fit] | –
CCc1ccc2nc(NC(=O)c3cc(C)on3)sc2c1 | inconclusive [inhibitor, single point] | –
COCCN(C(=O)CSc1nc2ccc(Cl)cc2[nH]1)c1c(N)n(Cc2ccccc2)c(=O)[nH]c1=O | – | inactive: -4.16%
COc1cccc(CN(C(=O)COc2ccc(Cl)cc2)C2CCS(=O)(=O)C2)c1 (configuration not stated) | inconclusive [inhibitor, full curve, poor fit] | –
Cc1cc(C)cc(NC(=O)CCc2c(C)nn(-c3ccc(N4CCCCC4)nn3)c2C)c1 | inconclusive [inhibitor, single point] | –
COc1cccc(-c2nc(CS(=O)(=O)CC(=O)NCCc3ccc(OC)cc3OC)c(C)o2)c1 | inconclusive [inhibitor, single point] | –
CSc1ccc(OC2CCCCC2NS(=O)(=O)c2ccccc2)cc1 (configuration not stated) | inconclusive [inhibitor, single point] | –
Cc1ccc(S(=O)(=O)Nc2cccc(C(=O)NCC(c3ccco3)N3CCCCC3)c2)cc1F (configuration not stated) | inconclusive [inhibitor, single point] | –
OCC1(Cc2cccc(C(F)(F)F)c2)CCN(Cc2cc3ccccc3o2)CC1 | inconclusive [inhibitor, partial curve, poor fit] | –
COc1ccc(-c2nc(C(N)=O)c3[nH]c(=O)n(-c4cccc(Cl)c4)c3n2)cc1OC | inconclusive [inhibitor, single point] | –
